# In the supplement of paper PMC8728848:
# This is one part of the list.
# Experiments:
# Assay in all cases: glycan array binding signal (z-score within array); higher = stronger binding
# Conditions in all cases: glycan notation: IUPAC condensed, linker removed
# [1] = target: Gal(b1-4)GlcNAc(b1-2)[Gal(b1-4)GlcNAc(b1-6)]Man(a1-6)[Gal(b1-4)GlcNAc(b1-2)Man(a1-3)]Man(b1-4)GlcNAc(b1-4)[Fuc(a1-6)]GlcNAc
# How it was run: (§1)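 Negative Z-scores can be read as non-binding. The Z-score is calculated within each array and then averaged across arrays of one protein sequence at different concentrations or buffers and across linkers. Arrays, 3228 in all, were curated from the Consortium for Functional Glycomics database and kept only where the protein sequence was available.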
# [2] = target: Gal(b1-4)GlcNAc(b1-2)[Gal(b1-4)GlcNAc(b1-6)]Man(a1-6)[GlcNAc(b1-4)][Gal(b1-4)GlcNAc(b1-2)Man(a1-3)]Man(b1-4)GlcNAc(b1-4)GlcNAc
# How it was run: as §1
# [3] = target: Gal(b1-4)GlcNAc(b1-2)[Gal(b1-4)GlcNAc(b1-6)]Man(a1-6)[GlcNAc(b1-4)][Gal(b1-4)GlcNAc(b1-2)[Gal(b1-4)GlcNAc(b1-4)]Man(a1-3)]Man(b1-4)GlcNAc(b1-4)[Fuc(a1-6)]GlcNAc
# How it was run: as §1
# [4] = target: Gal(b1-4)GlcNAc(b1-3)Gal(b1-3)GalNAc
# How it was run: as §1
# [5] = target: Gal(b1-4)GlcNAc(b1-3)Gal(b1-3)GlcNAc
# How it was run: as §1
# [6] = target: Gal(b1-4)GlcNAc(b1-3)Gal(b1-4)Glc
# How it was run: as §1
# [7] = target: Gal(b1-4)GlcNAc(b1-3)Gal(b1-4)GlcNAc
# How it was run: as §1
# [8] = target: Gal(b1-4)GlcNAc(b1-3)Gal(b1-4)GlcNAc(b1-2)Man(a1-3)[Gal(b1-4)GlcNAc(b1-3)Gal(b1-4)GlcNAc(b1-2)Man(a1-6)]Man(b1-4)GlcNAc(b1-4)GlcNAc
# How it was run: as §1
# [9] = target: Gal(b1-4)GlcNAc(b1-3)Gal(b1-4)GlcNAc(b1-2)Man(a1-3)[Gal(b1-4)GlcNAc(b1-3)Gal(b1-4)GlcNAc(b1-2)Man(a1-6)]Man(b1-4)GlcNAc(b1-4)[Fuc(a1-6)]GlcNAc
# How it was run: as §1
# [10] = target: Gal(b1-4)GlcNAc(b1-3)Gal(b1-4)GlcNAc(b1-2)[Gal(b1-4)GlcNAc(b1-3)Gal(b1-4)GlcNAc(b1-6)]Man(a1-6)[Gal(b1-4)GlcNAc(b1-3)Gal(b1-4)GlcNAc(b1-2)Man(a1-3)]Man(b1-4)GlcNAc(b1-4)GlcNAc
# How it was run: as §1
# [11] = target: Gal(b1-4)GlcNAc(b1-3)Gal(b1-4)GlcNAc(b1-2)[Gal(b1-4)GlcNAc(b1-3)Gal(b1-4)GlcNAc(b1-6)]Man(a1-6)[Gal(b1-4)GlcNAc(b1-3)Gal(b1-4)GlcNAc(b1-2)Man(a1-3)]Man(b1-4)GlcNAc(b1-4)[Fuc(a1-6)]GlcNAc
# How it was run: as §1
# [12] = target: Gal(b1-4)GlcNAc(b1-3)Gal(b1-4)GlcNAc(b1-3)Gal(b1-4)GlcNAc
# How it was run: as §1
# [13] = target: Gal(b1-4)GlcNAc(b1-3)Gal(b1-4)GlcNAc(b1-3)Gal(b1-4)GlcNAc(b1-2)Man(a1-3)[Gal(b1-4)GlcNAc(b1-3)Gal(b1-4)GlcNAc(b1-3)Gal(b1-4)GlcNAc(b1-2)Man(a1-6)]Man(b1-4)GlcNAc(b1-4)GlcNAc
# How it was run: as §1
# [14] = target: Gal(b1-4)GlcNAc(b1-3)Gal(b1-4)GlcNAc(b1-3)Gal(b1-4)GlcNAc(b1-2)Man(a1-3)[Gal(b1-4)GlcNAc(b1-3)Gal(b1-4)GlcNAc(b1-3)Gal(b1-4)GlcNAc(b1-2)Man(a1-6)]Man(b1-4)GlcNAc(b1-4)[Fuc(a1-6)]GlcNAc
# How it was run: as §1
# [15] = target: Gal(b1-4)GlcNAc(b1-3)Gal(b1-4)GlcNAc(b1-3)Gal(b1-4)GlcNAc(b1-2)[Gal(b1-4)GlcNAc(b1-3)Gal(b1-4)GlcNAc(b1-3)Gal(b1-4)GlcNAc(b1-6)]Man(a1-6)[Gal(b1-4)GlcNAc(b1-3)Gal(b1-4)GlcNAc(b1-3)Gal(b1-4)GlcNAc(b1-2)Man(a1-3)]Man(b1-4)GlcNAc(b1-4)[Fuc(a1-6)]GlcNAc
# How it was run: as §1
# [16] = target: Gal(b1-4)GlcNAc(b1-3)Gal(b1-4)GlcNAc(b1-3)Gal(b1-4)GlcNAc(b1-3)Gal(b1-4)GlcNAc(b1-2)Man(a1-3)[Gal(b1-4)GlcNAc(b1-3)Gal(b1-4)GlcNAc(b1-3)Gal(b1-4)GlcNAc(b1-3)Gal(b1-4)GlcNAc(b1-2)Man(a1-6)]Man(b1-4)GlcNAc(b1-4)GlcNAc
# How it was run: as §1
# [17] = target: Gal(b1-4)GlcNAc(b1-3)Gal(b1-4)GlcNAc(b1-3)Gal(b1-4)GlcNAc(b1-3)Gal(b1-4)GlcNAc(b1-2)Man(a1-3)[Gal(b1-4)GlcNAc(b1-3)Gal(b1-4)GlcNAc(b1-3)Gal(b1-4)GlcNAc(b1-3)Gal(b1-4)GlcNAc(b1-2)Man(a1-6)]Man(b1-4)GlcNAc(b1-4)[Fuc(a1-6)]GlcNAc
# How it was run: as §1
# [18] = target: Gal(b1-4)GlcNAc(b1-3)Gal(b1-4)GlcNAc(b1-3)Gal(b1-4)GlcNAc(b1-3)Gal(b1-4)GlcNAc(b1-2)[Gal(b1-4)GlcNAc(b1-3)Gal(b1-4)GlcNAc(b1-3)Gal(b1-4)GlcNAc(b1-3)Gal(b1-4)GlcNAc(b1-6)]Man(a1-6)[Gal(b1-4)GlcNAc(b1-3)Gal(b1-4)GlcNAc(b1-3)Gal(b1-4)GlcNAc(b1-3)Gal(b1-4)GlcNAc(b1-2)Man(a1-3)]Man(b1-4)GlcNAc(b1-4)[Fuc(a1-6)]GlcNAc
# How it was run: as §1
# [19] = target: Gal(b1-4)GlcNAc(b1-3)Gal(b1-4)GlcNAc(b1-3)Gal(b1-4)GlcNAc(b1-3)Gal(b1-4)GlcNAc(b1-3)Gal(b1-4)GlcNAc(b1-2)Man(a1-3)[Gal(b1-4)GlcNAc(b1-3)Gal(b1-4)GlcNAc(b1-3)Gal(b1-4)GlcNAc(b1-3)Gal(b1-4)GlcNAc(b1-3)Gal(b1-4)GlcNAc(b1-2)Man(a1-6)]Man(b1-4)GlcNAc(b1-4)GlcNAc
# How it was run: as §1
# [20] = target: Gal(b1-4)GlcNAc(b1-3)Gal(b1-4)GlcNAc(b1-3)Gal(b1-4)GlcNAc(b1-3)Gal(b1-4)GlcNAc(b1-3)Gal(b1-4)GlcNAc(b1-2)Man(a1-3)[Gal(b1-4)GlcNAc(b1-3)Gal(b1-4)GlcNAc(b1-3)Gal(b1-4)GlcNAc(b1-3)Gal(b1-4)GlcNAc(b1-3)Gal(b1-4)GlcNAc(b1-2)Man(a1-6)]Man(b1-4)GlcNAc(b1-4)[Fuc(a1-6)]GlcNAc
# How it was run: as §1
# [21] = target: Gal(b1-4)GlcNAc(b1-3)Gal(b1-4)GlcNAc(b1-3)Gal(b1-4)GlcNAc(b1-3)Gal(b1-4)GlcNAc(b1-3)Gal(b1-4)GlcNAc(b1-2)[Gal(b1-4)GlcNAc(b1-3)Gal(b1-4)GlcNAc(b1-3)Gal(b1-4)GlcNAc(b1-3)Gal(b1-4)GlcNAc(b1-3)Gal(b1-4)GlcNAc(b1-6)]Man(a1-6)[Gal(b1-4)GlcNAc(b1-3)Gal(b1-4)GlcNAc(b1-3)Gal(b1-4)GlcNAc(b1-3)Gal(b1-4)GlcNAc(b1-3)Gal(b1-4)GlcNAc(b1-2)Man(a1-3)]Man(b1-4)GlcNAc(b1-4)[Fuc(a1-6)]GlcNAc
# How it was run: as §1
# [22] = target: Gal(b1-4)GlcNAc(b1-3)Gal(b1-4)GlcNAc(b1-3)Gal(b1-4)GlcNAc(b1-3)Gal(b1-4)GlcNAc(b1-3)Gal(b1-4)GlcNAc(b1-3)Gal(b1-4)GlcNAc(b1-2)Man(a1-3)[Gal(b1-4)GlcNAc(b1-3)Gal(b1-4)GlcNAc(b1-3)Gal(b1-4)GlcNAc(b1-3)Gal(b1-4)GlcNAc(b1-3)Gal(b1-4)GlcNAc(b1-3)Gal(b1-4)GlcNAc(b1-2)Man(a1-6)]Man(b1-4)GlcNAc(b1-4)GlcNAc
# How it was run: as §1
# [23] = target: Gal(b1-4)GlcNAc(b1-3)Gal(b1-4)GlcNAc(b1-3)GalNAc
# How it was run: as §1
binder,measurement,setting,value
"Nictaba (Nicotiana tabacum), Q94EW1 (protein) MQGQWIAARDLSITWVDNPQYWTWKTVDPNIEVAELRRVAWLDIYGKIETKNLIRKTSYAVYLVFKLTDNPRELERATASLRFVNEVAEGAGIEGTTVFISKKKKLPGELGRFPHLRSDGWLEIKLGEFFNNLGEDGEVEMRLMEINDKTWKSGIIVKGFDIRPN",glycan array binding signal (z-score),[1],2.96
same,glycan array binding signal (z-score),[2],-0.292
same,glycan array binding signal (z-score),[3],-0.384
same,glycan array binding signal (z-score),[4],-0.391
same,glycan array binding signal (z-score),[5],-0.291
same,glycan array binding signal (z-score),[6],-0.269
same,glycan array binding signal (z-score),[7],-0.267
same,glycan array binding signal (z-score),[8],1.21
same,glycan array binding signal (z-score),[9],2.81
same,glycan array binding signal (z-score),[10],0.088
same,glycan array binding signal (z-score),[11],1.11
same,glycan array binding signal (z-score),[12],-0.246
same,glycan array binding signal (z-score),[13],1.54
same,glycan array binding signal (z-score),[14],2.46
same,glycan array binding signal (z-score),[15],0.076
same,glycan array binding signal (z-score),[16],2.49
same,glycan array binding signal (z-score),[17],2.18
same,glycan array binding signal (z-score),[18],-0.086
same,glycan array binding signal (z-score),[19],2.43
same,glycan array binding signal (z-score),[20],2.91
same,glycan array binding signal (z-score),[21],-0.006
same,glycan array binding signal (z-score),[22],1.96
same,glycan array binding signal (z-score),[23],-0.382
